These are yes or no findings as the source states them, for the method shown. For some of these results: Binding seen in cells or lysates may run through a third protein. Some entries that bind do so weakly or less than the wild type. Tags and fused reporters may be left off the sequences shown.

Amino acid sequences for entries named in this document (tags omitted). A change or cut given only in a name is not applied to a line headed by its entry.
UniProt P12956: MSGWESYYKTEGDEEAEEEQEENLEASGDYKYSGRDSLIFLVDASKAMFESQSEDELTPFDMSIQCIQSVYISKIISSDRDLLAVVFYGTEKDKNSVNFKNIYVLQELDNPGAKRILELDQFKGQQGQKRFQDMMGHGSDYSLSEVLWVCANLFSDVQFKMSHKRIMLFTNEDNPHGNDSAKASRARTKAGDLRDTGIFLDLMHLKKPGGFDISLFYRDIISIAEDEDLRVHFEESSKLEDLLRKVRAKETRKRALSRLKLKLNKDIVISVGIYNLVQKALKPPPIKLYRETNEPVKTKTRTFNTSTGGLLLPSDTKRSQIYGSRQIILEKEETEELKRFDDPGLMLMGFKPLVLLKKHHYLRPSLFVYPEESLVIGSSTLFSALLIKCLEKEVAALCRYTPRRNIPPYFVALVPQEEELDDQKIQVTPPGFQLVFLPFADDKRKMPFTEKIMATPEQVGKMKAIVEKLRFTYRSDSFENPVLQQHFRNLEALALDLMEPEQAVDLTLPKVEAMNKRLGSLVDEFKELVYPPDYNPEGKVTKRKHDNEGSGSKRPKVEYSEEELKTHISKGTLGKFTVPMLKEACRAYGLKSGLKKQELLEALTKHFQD
UniProt P13010: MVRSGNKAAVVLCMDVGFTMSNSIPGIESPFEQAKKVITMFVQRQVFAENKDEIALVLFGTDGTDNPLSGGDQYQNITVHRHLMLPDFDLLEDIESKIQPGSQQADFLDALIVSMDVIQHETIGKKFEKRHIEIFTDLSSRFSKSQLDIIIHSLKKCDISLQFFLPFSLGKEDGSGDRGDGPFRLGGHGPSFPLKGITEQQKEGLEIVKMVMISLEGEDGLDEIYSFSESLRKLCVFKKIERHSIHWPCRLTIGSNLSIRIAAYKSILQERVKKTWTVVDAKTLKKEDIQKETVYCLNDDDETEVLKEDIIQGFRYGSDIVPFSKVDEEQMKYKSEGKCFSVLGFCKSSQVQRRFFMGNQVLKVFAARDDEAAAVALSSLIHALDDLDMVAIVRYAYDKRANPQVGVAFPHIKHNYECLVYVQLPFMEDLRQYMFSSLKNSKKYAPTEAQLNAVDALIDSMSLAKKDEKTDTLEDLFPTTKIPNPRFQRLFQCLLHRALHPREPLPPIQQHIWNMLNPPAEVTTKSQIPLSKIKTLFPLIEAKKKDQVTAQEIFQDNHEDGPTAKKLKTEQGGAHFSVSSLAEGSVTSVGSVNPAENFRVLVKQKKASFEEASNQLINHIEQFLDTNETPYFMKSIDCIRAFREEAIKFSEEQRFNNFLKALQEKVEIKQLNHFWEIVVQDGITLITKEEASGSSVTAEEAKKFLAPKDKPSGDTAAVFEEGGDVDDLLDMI
UniProt P67809: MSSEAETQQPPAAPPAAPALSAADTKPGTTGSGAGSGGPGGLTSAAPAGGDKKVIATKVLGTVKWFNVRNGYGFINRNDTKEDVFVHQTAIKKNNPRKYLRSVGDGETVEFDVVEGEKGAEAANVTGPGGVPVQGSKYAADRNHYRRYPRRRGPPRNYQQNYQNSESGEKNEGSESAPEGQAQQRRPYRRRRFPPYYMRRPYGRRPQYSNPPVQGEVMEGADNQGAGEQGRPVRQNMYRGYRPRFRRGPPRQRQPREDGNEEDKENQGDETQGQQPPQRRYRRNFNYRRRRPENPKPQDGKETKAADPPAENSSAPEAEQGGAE
UniProt P27694: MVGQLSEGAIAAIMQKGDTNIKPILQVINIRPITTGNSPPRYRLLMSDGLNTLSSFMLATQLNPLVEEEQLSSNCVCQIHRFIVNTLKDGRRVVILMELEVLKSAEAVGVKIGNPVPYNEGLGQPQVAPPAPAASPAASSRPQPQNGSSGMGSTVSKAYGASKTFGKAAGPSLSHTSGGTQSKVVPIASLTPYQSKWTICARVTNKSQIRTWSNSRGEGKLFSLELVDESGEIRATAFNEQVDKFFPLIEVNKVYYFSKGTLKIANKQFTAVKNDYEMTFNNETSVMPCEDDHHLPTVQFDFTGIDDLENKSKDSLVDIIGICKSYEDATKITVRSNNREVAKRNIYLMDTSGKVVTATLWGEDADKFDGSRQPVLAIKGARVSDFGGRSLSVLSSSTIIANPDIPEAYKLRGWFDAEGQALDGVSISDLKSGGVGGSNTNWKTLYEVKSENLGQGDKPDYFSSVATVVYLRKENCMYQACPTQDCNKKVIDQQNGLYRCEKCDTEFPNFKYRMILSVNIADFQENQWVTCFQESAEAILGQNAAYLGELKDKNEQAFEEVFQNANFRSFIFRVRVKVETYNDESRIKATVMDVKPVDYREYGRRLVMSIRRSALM
UniProt P15927: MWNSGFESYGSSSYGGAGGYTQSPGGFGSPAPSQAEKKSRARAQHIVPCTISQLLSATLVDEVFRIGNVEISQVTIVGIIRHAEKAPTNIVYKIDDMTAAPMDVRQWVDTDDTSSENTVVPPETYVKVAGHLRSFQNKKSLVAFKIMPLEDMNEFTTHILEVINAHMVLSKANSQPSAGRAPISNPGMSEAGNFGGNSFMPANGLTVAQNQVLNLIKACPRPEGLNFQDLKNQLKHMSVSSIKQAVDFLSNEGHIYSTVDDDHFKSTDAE

For 15 molecules, binding results are on record in paper PMC9197078, “The small nonstructural protein NP1 of human bocavirus 1 directly interacts with Ku70 and RPA70 and facilitates viral DNA replication” (PLoS Pathogens, 2022).

The labels stand for the following.
B1: DExH-box helicase 30 (DHX30/DDX30) (protein, UniProt Q7L2E3 1-1194)
chain: MFSLDSFRKDRAQHRQRQCKLPPPRLPPMCVNPTPGGTISRASRDLLKEFPQPKNLLNSVIGRALGISHAKDKLVYVHTNGPKKKKVTLHIKWPKSVEVEGYGSKKIDAERQAAAAACQLFKGWGLLGPRNELFDAAKYRVLADRFGSPADSWWRPEPTMPPTSWRQLNPESIRPGGPGGLSRSLGREEEEDEEEELEEGTIDVTDFLSMTQQDSHAPLRDSRGSSFEMTDDDSAIRALTQFPLPKNLLAKVIQIATSSSTAKNLMQFHTVGTKTKLSTLTLLWPCPMTFVAKGRRKAEAENKAAALACKKLKSLGLVDRNNEPLTHAMYNLASLRELGETQRRPCTIQVPEPILRKIETFLNHYPVESSWIAPELRLQSDDILPLGKDSGPLSDPITGKPYVPLLEAEEVRLSQSLLELWRRRGPVWQEAPQLPVDPHRDTILNAIEQHPVVVISGDTGCGKTTRIPQLLLERYVTEGRGARCNVIITQPRRISAVSVAQRVSHELGPSLRRNVGFQVRLESKPPSRGGALLFCTVGILLRKLQSNPSLEGVSHVIVDEVHERDVNTDFLLILLKGLQRLNPALRLVLMSATGDNERFSRYFGGCPVIKVPGFMYPVKEHYLEDILAKLGKHQYLHRHRHHESEDECALDLDLVTDLVLHIDARGEPGGILCFLPGWQEIKGVQQRLQEALGMHESKYLILPVHSNIPMMDQKAIFQQPPVGVRKIVLATNIAETSITINDIVHVVDSGLHKEERYDLKTKVSCLETVWVSRANVIQRRGRAGRCQSGFAYHLFPRSRLEKMVPFQVPEILRTPLENLVLQAKIHMPEKTAVEFLSKAVDSPNIKAVDEAVILLQEIGVLDQREYLTTLGQRLAHISTDPRLAKAIVLAAIFRCLHPLLVVVSCLTRDPFSSSLQNRAEVDKVKALLSHDSGSDHLAFVRAVAGWEEVLRWQDRSSRENYLEENLLYAPSLRFIHGLIKQFSENIYEAFLVGKPSDCTLASAQCNEYSEEEELVKGVLMAGLYPNLIQVRQGKVTRQGKFKPNSVTYRTKSGNILLHKSTINREATRLRSRWLTYFMAVKSNGSVFVRDSSQVHPLAVLLLTDGDVHIRDDGRRATISLSDSDLLRLEGDSRTVRLLKELRRALGRMVERSLRSELAALPPSVQEEHGQLLALLAELLRGPCGSFDVRKTADD
B2: HBoV1 NS1-70^Flag-His (protein, UniProt D0EZM8-2 1-639)
chain: MAFNPPVIRAFSQPAFTYVFKFPYPQWKEKEWLLHALLAHGTEQSMIQLRNCAPHPDEDIIRDDLLISLEDRHFGAVLCKAVYMATTTLMSHKQRNMFPRCDIIVQSELGEKNLHCHIIVGGEGLSKRNAKSSCAQFYGLILAEIIQRCKSLLATRPFEPEEADIFHTLKKAEREAWGGVTGGNMQILQYRDRRGDLHAQTVDPLRFFKNYLLPKNRCISSYSKPDVCTSPDNWFILAEKTYSHTLINGLPLPEHYRKNYHATLDNEVIPGPQTMAYGGRGPWEHLPEVGDQRLAASSVSTTYKPNKKEKLMLNLLDKCKELNLLVYEDLVANCPELLLMLEGQPGGARLIEQVLGMHHINVCSNFTALTYLFHLHPVTSLDSDNKALQLLLIQGYNPLAVGHALCCVLNKQFGKQNTVCFYGPASTGKTNMAKAIVQGIRLYGCVNHLNKGFVFNDCRQRLVVWWEECLMHQDWVEPAKCILGGTECRIDVKHRDSVLLTQTPVIISTNHDIYAVVGGNSVSHVHAAPLKERVIQLNFMKQLPQTFGEITATEIAALLQWCFNEYDCTLTGFKQKWNLDKIPNSFPLGVLCPTHSQDFTLHENGYCTDCGGYLPHSADNSMYTDRASETSTGDITPSK

The first experiment has as its target T1, Strep tagged NP1 (NP1^Strep) (human bocavirus 1 (HBoV1)) (UniProt Q3YPH5).
T1 sequence: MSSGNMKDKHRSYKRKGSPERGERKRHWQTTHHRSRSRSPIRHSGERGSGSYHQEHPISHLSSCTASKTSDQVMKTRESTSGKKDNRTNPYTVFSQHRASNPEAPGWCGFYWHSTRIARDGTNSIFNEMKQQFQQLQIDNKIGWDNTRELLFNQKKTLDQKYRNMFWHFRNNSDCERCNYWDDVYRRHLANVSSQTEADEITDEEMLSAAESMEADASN
Description: pull-down; both purified.
For “His-tagged Ku70/80 heterodimer (Ku70/80^His heterodimer) (from UniProt P12956 1-609; P13010 1-732) (complex)”, the binding entry is recorded as “binds”.

A further experiment addresses T2, glutathione S-transferase (GST)-tagged HBoV1 NP1 (GST-NP1) (human bocavirus 1 (HBoV1)) (UniProt Q3YPH5).
T2 sequence: T1 sequence
Description: pull-down; both purified.
As to “His-tagged Ku70/80 heterodimer (Ku70/80^His heterodimer) (from UniProt P12956 1-609; P13010 1-732) (complex)”, the binding result is “binds”.

In the next experiment the target is T3, Flag-tagged HBoV1 NP1 (NP1^Flag) (human bocavirus 1 (HBoV1)) (UniProt Q3YPH5).
T3 sequence: T1 sequence
In words: co-IP; HEK293 transfected with pCI-NP1^Flag or pCI; lysate (50 mM Tris-HCl pH 8.0, 150 mM NaCl, 1% NP-40) treated with 250 units Benzonase nuclease; anti-Flag affinity resin, ~4 h, 4°C; Western blotting. For orientation: A western blot detects proteins with antibodies after separation by electrophoresis.
In the case of “Y-box binding protein 1 (YBX1) (from UniProt P67809 1-324)”, the binding entry was “binds”.
Take “RPA70 (endogenous) (from UniProt P27694 1-616)”: the binding result was “binds”.
On the same count and under the same terms, the result for “ATP-dependent DNA helicase II 70 KDa (Ku70) (endogenous) (from UniProt P12956 1-609)” reads “binds”; that for B1, “binds”.

For another experiment, the target named is T2, glutathione S-transferase (GST)-tagged HBoV1 NP1 (GST-NP1) (human bocavirus 1 (HBoV1)). Description: pull-down; 4 μg GST-tagged bait on Glutathione agarose, 4 μg purified prey; 25 mM Tris pH 7.4, 150 mM NaCl, 1 mM EDTA, 1% NP-40, 4°C, 3 h; benzonase added to bait and prey; Western blotting with anti-His; both purified.
Take “RPA70-C-ter^His (aa423-616) (from UniProt P27694 423-616) (domain or fragment)”: the binding result is “no binding (tested: 4 μg bait, 4 μg prey)”.
The same measure, in the same setting: to “Ku70-vWA^His (aa1-265) (from UniProt P12956 1-265) (domain or fragment)” belongs “no binding”; to “RPA70-A^His (aa181-300) (from UniProt P27694 181-300) (domain or fragment)”, “no binding (tested: 4 μg bait, 4 μg prey)”; to RPA32^His (from UniProt P15927 1-270), “no binding (tested: 4 μg bait, 4 μg prey)”.
Turning to “hexahistidine (His)-tagged Ku80 (Ku80^His) (from UniProt P13010 1-732)”, the binding result is recorded as “no binding (tested: 4 μg bait, 4 μg prey)”.
With “RPA70-N-ter^His (aa1-180) (from UniProt P27694 1-180) (domain or fragment)”, the binding result was “no binding (tested: 4 μg bait, 4 μg prey)”.
In the case of “Ku70-SAP^His (aa537-609) (from UniProt P12956 537-609) (domain or fragment)”, the binding result is “no binding”.
On the same count and under the same terms, the result for “MBP-Ku70-CTR^His (aa440-536) (from UniProt P12956 440-536) (domain or fragment)” reads “no binding (tested: 4 μg bait, 4 μg prey)”; that for “RPA70-B^His (aa301-422) (from UniProt P27694 301-422) (domain or fragment)”, “no binding (tested: 4 μg bait, 4 μg prey)”.

The next experiment shares this target. Described as above. The source holds these as a separate data set.
Consider B2, for which the binding result is “no binding (tested: 4 μg bait, 4 μg prey)”.
